# Results from publication PMC4336329 (PLoS ONE, 2015).
# Hit rate of the full screen: of about 310,000 compounds, about 2,200 (0.71%) showed an effect of 50% or more. Effects have a minus sign here. The list shows a part of the results.
# Molecular target: human ether-à-go-go-related gene (hERG) potassium channel (human, UniProt Q12809)
# Test: primary screen, population patch clamp on CHO cells stably expressing hERG
# Sequence of human ether-à-go-go-related gene (hERG) potassium channel (Q12809 whole entry, looked up): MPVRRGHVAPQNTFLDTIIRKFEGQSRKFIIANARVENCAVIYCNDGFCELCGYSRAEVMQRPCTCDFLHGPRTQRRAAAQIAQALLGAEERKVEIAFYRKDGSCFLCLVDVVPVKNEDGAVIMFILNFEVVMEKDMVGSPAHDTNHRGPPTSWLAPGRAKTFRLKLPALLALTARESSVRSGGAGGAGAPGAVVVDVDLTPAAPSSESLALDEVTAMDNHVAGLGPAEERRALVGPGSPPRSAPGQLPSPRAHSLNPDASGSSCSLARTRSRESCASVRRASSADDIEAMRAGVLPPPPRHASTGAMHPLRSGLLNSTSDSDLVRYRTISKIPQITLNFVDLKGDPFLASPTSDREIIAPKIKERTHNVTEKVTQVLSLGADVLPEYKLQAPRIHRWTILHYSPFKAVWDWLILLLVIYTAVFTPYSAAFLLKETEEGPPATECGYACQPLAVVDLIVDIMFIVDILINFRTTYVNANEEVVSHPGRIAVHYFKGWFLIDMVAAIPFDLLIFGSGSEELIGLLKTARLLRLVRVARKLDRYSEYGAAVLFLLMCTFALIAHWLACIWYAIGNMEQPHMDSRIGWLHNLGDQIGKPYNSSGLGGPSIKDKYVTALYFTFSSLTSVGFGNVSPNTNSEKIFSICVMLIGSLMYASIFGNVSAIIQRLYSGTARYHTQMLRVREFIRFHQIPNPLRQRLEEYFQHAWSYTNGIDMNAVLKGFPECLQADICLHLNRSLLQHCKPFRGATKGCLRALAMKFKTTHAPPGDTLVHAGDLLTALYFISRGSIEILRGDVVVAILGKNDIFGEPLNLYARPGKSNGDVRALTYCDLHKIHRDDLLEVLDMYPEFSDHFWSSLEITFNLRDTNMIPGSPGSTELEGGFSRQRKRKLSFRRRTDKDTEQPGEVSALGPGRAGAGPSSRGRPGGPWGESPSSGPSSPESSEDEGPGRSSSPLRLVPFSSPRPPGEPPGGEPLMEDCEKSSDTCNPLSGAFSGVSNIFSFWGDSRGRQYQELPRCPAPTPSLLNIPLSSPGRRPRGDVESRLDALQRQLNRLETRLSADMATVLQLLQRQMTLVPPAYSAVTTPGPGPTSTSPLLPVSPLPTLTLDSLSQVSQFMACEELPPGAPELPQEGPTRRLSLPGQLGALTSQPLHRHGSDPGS
row,Structure (SMILES),"hERG current change (%, negative = inhibition) at 1uM"
1,O=C1NCC2=C1C(c1ccc(Br)cc1)Nc1ccccc1N2 (stereo not shown),-13.2%
2,CC1CCC(NC(=O)COC(=O)c2ccc3ncsc3c2)CC1 (stereo not shown),12.9%
3,C/C=C1/CN2[C@@H]3C4CO[C@@H]3c3c([nH]c5cc(OC)ccc35)[C@@H]2CC14 (stereo partly shown),7.54%
4,Cc1cc(=O)oc2cc(OC(=O)CCN3C(=O)c4ccccc4C3=O)ccc12,7.83%
5,O=C(CNC1CC1)Nc1cc(C(F)(F)F)ccc1Cl.O=C(O)C(=O)O,12.9%
6,COc1ccc(N2C(=O)CC(Sc3nccc(C)n3)C2=O)cc1 (stereo not shown),8.52%
7,Cc1sc2ncnc(SCC(=O)NCC3CCCO3)c2c1C (stereo not shown),7.17%
8,CCCc1nc(SCC(=O)Nc2nccs2)c2ccccc2n1,12.9%
9,Clc1ccc(OCCN2CCOCC2)cc1Cl,13.4%
10,OCC[n+]1ccc(/C=C/c2c[nH]c3ccccc23)cc1,5.84%
11,CCOc1ccc(NC(=O)CCSc2nc3c(c(CC)c2C#N)C(=O)CC(C)(C)C3)cc1,7.21%
12,O=C(O)/C(=C\c1cccs1)c1ccccc1,5.14%
13,CCc1noc(C)c1C(=O)Nc1cc(Cl)ccc1-n1cncn1,1.58%
14,O=S(=O)(/C=C/c1ccccc1)N1CCN(c2nc(-c3ccccc3)nc3ccccc23)CC1,11.4%
15,C/C=C(\C)CN1CCC(Oc2cccc(C(=O)NCc3ccccn3)c2)CC1,7.58%
16,COCCNC(=O)c1cc(-c2ccccc2)nn1CC1CC(c2cccnc2)=NO1 (stereo not shown),19.3%
17,CCN(C(=O)C1CCCO1)c1ccccc1 (stereo not shown),15.1%
18,N=C1/C(=C/c2ccc(OCc3ccccc3F)cc2)C(=O)N=C2SC(CC(=O)N3CCOCC3)=NN12,12.2%
19,COc1ccc(C2=NCCn3nc4ccccc4c32)cc1,7.48%
20,CCCCOC(=O)c1ccc(NC(=O)COC(=O)C2CSC3(C)CCC(=O)N23)cc1 (stereo not shown),15.2%
21,CS(=O)(=O)N1CCN(S(=O)(=O)c2ccccc2[N+](=O)[O-])CC1,16.2%
22,COc1ccccc1/C=C/C(=O)N1CCN(S(=O)(=O)c2cc(C)ccc2C)CC1,13.1%

row,Structure (SMILES),"hERG current change (%, negative = inhibition) at 1uM"
1,Cc1ccc(S(=O)(=O)N2CCC(C(=O)NNC(=O)c3cccnc3)CC2)cc1,3.13%
2,COc1ccc(NS(=O)(=O)c2ccc3c(c2)NC(=O)C(C)S3)cc1 (stereo not shown),13%
3,C=CCN1C(=O)/C(=C\c2ccco2)C(C(=O)OC)=C1C,3.12%
4,Cc1ccc(-n2ncc3c(=O)n(CC(=O)N(C)C)cnc32)cc1,9.92%
5,Cc1cc(F)ccc1Oc1cc(NN2CCCCC2)c([N+](=O)[O-])cc1[N+](=O)[O-],9.35%
6,S=c1[nH]nc(C2CCCCC2)n1/N=C/c1cccs1,4.69%
7,CCOC(=O)[C@H]1[C@H]2COc3ccc(OC)cc3[C@@H]2N2C(=O)[C@H](C)NC(=O)[C@@]12C,12.7%
8,Cc1cc(C)c(C)c(S(=O)(=O)N2CCC(C(=O)Nc3ccncc3)CC2)c1C,3.76%
9,O=C(O)c1ccc(C(=O)Nc2cccc(NC(=O)C3CCCO3)c2)cc1 (stereo not shown),-0.421%
10,Cc1ccnc(N2C(=O)c3ccccc3C2O)c1 (stereo not shown),8.24%
11,CCCN1C(=O)c2ccccc2NC1c1cc(OC)c(OC)c(OC)c1 (stereo not shown),0.782%
12,CC(=O)Nc1ccc(C(=O)NNC(=O)CCc2ccccc2)cc1,18%
13,COc1ccc2oc(C(=O)NCc3ccccc3CN3CCCC3)c(C)c2c1,-27.2%
14,COc1ccc(CN2C(=O)NC(=O)/C(=C\c3cccc(OC)c3OC)C2=O)cc1,11.1%
15,O=C1c2ccccc2C(=O)N1Cc1ccco1,8.55%
16,COc1ccc(-c2oc3c(CC=C(C)C)c(O[C@@H]4O[C@H](CO)[C@@H](O)[C@H](O)[C@H]4O)cc(O)c3c(=O)c2O[C@@H]2O[C@@H](C)[C@H](O)[C@@H](O)[C@H]2O)cc1,0.935%
17,CCN(CC)CCNC(=O)c1cc2c(=O)n(C)c3ccccc3c2s1,10.8%
18,CC(=O)Nc1ccc(S(=O)(=O)N2CCC(C(=O)N[C@@H](Cc3ccccc3)C(=O)O)CC2)cc1,10.1%
19,CCOc1ccc(S(=O)(=O)N2CCCC(C(=O)N3CCC(C(N)=O)CC3)C2)cc1Cl (stereo not shown),13.2%
20,Cc1cc(C)cc(NC(=O)C2CCCN2C(=O)NC2CCCCC2)c1 (stereo not shown),13.9%
21,C=CCNc1nc(C2(C)CC3(CC(C)OC3=O)C(=O)O2)cs1 (stereo not shown),6.48%
22,Brc1cc(Br)cc(CN2CCSCC2)c1,11.8%

row,Structure (SMILES),"hERG current change (%, negative = inhibition) at 1uM"
1,CC(Sc1nc(N)cc(=O)[nH]1)C(=O)NC1CCCCC1 (stereo not shown),1.47%
2,N#CC1=C(N)C(C#N)(C#N)[C@H](c2ccoc2)[C@H]2CN(Cc3ccccc3)CC=C12,-3.71%
3,O=C(O)CSc1nccc2ccccc12,19.9%
4,COc1ccccc1CN(Cc1nc2ccccc2c(=O)[nH]1)S(=O)(=O)c1ccc(C)cc1,6.96%
5,CN(c1ccccc1)S(=O)(=O)c1ccc(C(=O)Nc2nnc(-c3ccco3)o2)cc1,9.24%
6,CCOc1ccc(C(=O)OC2CC3CCC(C2)N3C)cc1.Cl (stereo not shown),-0.916%
7,C=CCNC(=O)Nc1ccc(OCC)cc1,-1.27%
8,CCN(C(=O)CN1C(=O)c2ccc([N+](=O)[O-])cc2C1=O)C1CCS(=O)(=O)C1 (stereo not shown),17.2%
9,O=c1oc2c3c4c(cc2c(C(F)(F)F)c1CCN1CCOCC1)CCCN4CCC3,9.79%
10,CC1=CC(C)(C)n2c(O)c(N=NC(N)=S)c3c(C)c(C)cc1c32,13.8%
11,O=C(COC(=O)c1cccc(C(=O)OCC(=O)NCc2ccc(F)cc2)n1)NCc1ccc(F)cc1,12.6%
12,O=C(CC1NCCc2ccccc21)Nc1ccc(Cl)cc1 (stereo not shown),3.57%
13,CCOc1ccc(/C=N/OCC(=O)NC(c2ccccc2)c2ccccc2)cc1,10.8%
14,Cc1ccccc1NC(=O)COc1ccc2oc(=O)cc(C)c2c1,2.3%
15,Cn1c(=O)[nH]c(=O)c2c1nc(SCCN1CCOCC1)n2Cc1ccccc1,-12%
16,Cc1cccc(C(CC(=O)O)NC(=O)C(F)(F)F)c1 (stereo not shown),11%
17,COc1cccc(N2C(=NC(=O)COc3ccccc3)SC3CS(=O)(=O)CC32)c1 (stereo not shown),13.8%
18,COc1ccc(CNC(=O)CCn2c(=O)[nH]c3ccccc3c2=O)cc1,11.7%
19,Cc1cc(C)nc(Nc2ccccc2Br)n1,21.3%
20,O=C(NNC(=S)Nc1ccccc1Cl)c1ccccc1Cl,14.7%
21,O=C(CCc1c[nH]c2ccccc12)OCc1cccc([N+](=O)[O-])c1,13.2%
22,CC(C)(C)c1cc(N2CCOCC2)n2ncc(-c3ccc(Cl)cc3)c2n1,12.9%

row,Structure (SMILES),"hERG current change (%, negative = inhibition) at 1uM"
1,COc1ccc(-n2c(C)nc3cc(C(=O)N4CCOCC4)ccc32)cc1,-5.31%
2,Cc1c(O)ccc2c(-c3ccccc3)cc(=O)oc12,10.7%
3,O=C(N/N=C/c1ccoc1)c1ccc([N+](=O)[O-])cc1,15.4%
4,COc1ccc(C(C)=O)cc1COc1ccc(F)cc1,12.5%
5,O=C(CCS(=O)(=O)c1ccc2c(c1)NC(=O)CS2)NCc1ccccc1Cl,11.3%
6,O=C(CCCn1c(SCC(=O)Nc2ccccc2Cl)nc2ccccc2c1=O)NCC1CCCO1 (stereo not shown),14.5%
7,CC(C)CN(C(=O)c1ccc(F)cc1F)c1c(N)n(CC(C)C)c(=O)[nH]c1=O,4.11%
8,Cn1ccnc1SCC(=O)Nc1ccc2ccccc2c1,0.696%
9,CC(C)(C)[C@@H]1CCC(=O)N(CC[C@H](N=[N+]=[N-])c2ccccc2)CC1,8.71%
10,Cc1ccc2c(c1)c1nc3ccccc3nc1n2CCN1CCOCC1,-5.66%
11,c1ccc(-n2cnnc2SCc2cn3cccnc3n2)cc1,6%
12,O=C(Cn1c(=O)oc2cc(S(=O)(=O)N3CCCC3)ccc21)Nc1ccc(C(F)(F)F)cc1,9.99%
13,CC(=O)NCC(=O)NNC1CC(=O)N(c2cccc(Cl)c2)C1=O (stereo not shown),12%
14,Cn1c(=O)n(C)c2cc(/C=N/NC(=O)c3cccc(Br)c3)ccc21,14.1%
15,Cc1ccc(-n2nnc(-c3cc4ccccc4nc3Cl)n2)cc1,23.6%
16,CCOC(=O)c1cn2nc(OP(=S)(OCC)OCC)cc2nc1C,-6.14%
17,CCCC(=O)Nc1ccc2c(c1)nc(CCNC(=O)c1ccccc1)n2C,10.2%
18,O=C1OC(c2cccs2)=N/C1=C\c1ccc(-c2cccc(Cl)c2)o1,8.62%
19,O=Cc1cc2cc3c(cc2nc1Cl)OCCO3,13.7%
20,NC(=O)c1cccn1Cc1cccc(Cl)c1,-0.43%
21,CCOC(=O)C1CCCN(C2CC(=O)N(c3ccc(C)c(C)c3)C2=O)C1 (stereo not shown),6.77%
22,CN(C)[C@@H](CO)c1nnc([C@H](CCC(=O)O)NC(=O)C2CCNCC2)o1.Cl,19.7%
